This is an account of results in patent US20080102065A1 (published 2008).

In assay [1] the target is T1, huEpoR expressed on the cell surface (UT-7 cells) (human, UniProt P19235 25-508).
T1 sequence (looked up): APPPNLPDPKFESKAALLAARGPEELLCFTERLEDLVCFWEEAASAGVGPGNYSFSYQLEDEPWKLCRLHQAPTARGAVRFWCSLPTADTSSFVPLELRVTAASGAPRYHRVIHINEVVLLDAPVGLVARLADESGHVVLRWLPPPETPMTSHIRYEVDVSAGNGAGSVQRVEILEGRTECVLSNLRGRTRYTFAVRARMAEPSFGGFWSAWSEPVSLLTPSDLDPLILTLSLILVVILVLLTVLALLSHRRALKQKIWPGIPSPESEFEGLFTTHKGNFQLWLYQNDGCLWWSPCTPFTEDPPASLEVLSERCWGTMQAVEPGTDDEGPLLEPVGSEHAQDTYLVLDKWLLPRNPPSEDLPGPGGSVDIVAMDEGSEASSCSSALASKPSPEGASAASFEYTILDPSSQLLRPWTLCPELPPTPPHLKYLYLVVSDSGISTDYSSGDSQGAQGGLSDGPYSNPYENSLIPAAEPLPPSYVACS
The experiment in a line: cell-based or functional assay.

The target of another assay is T2, mouse EpoR (muEpoR) (mouse, UniProt P14753 25-249, limits assumed).
T2 sequence (looked up): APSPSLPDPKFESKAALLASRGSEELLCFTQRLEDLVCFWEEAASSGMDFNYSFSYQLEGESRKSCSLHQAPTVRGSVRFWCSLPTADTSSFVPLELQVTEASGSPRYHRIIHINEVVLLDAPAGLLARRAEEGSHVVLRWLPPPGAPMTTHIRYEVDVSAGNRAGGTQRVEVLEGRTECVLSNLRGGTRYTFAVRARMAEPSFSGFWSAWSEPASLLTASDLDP
Put plainly: ELISA on coated muEpoR, scFv-Fc at 5 µg/ml (Example 17). A general note: In an ELISA, binding on a coated surface is turned into a signal by an enzyme label.

The target in assay [2] is T3, huEpoR protein (soluble human erythropoietin receptor) (human, UniProt P19235 25-250, limits assumed).
T3 construct: also called soluble huEpoR; biotinylated huEpoR
T3 sequence (looked up): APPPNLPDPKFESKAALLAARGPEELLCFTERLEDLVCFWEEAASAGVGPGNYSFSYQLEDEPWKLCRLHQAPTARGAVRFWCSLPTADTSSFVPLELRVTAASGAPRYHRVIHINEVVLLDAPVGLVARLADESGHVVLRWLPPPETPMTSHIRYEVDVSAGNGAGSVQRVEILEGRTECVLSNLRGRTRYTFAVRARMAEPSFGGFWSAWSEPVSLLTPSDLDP
The experiment in a line: SPR, Biacore T100; scFv-Fc captured on anti-human IgG Fc CM5 chip, EpoR as analyte; 1:1 fit.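 Also: measured at 25 °C in HBS-EP buffer with 0.1 mg/ml BSA, flowed at 50 µl/min, 1 min association then dissociation (10 min human, 5 min cyno EpoR).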 For orientation: SPR reads the build-up and loss of mass on a sensor chip optically.

Assay [3] has as its target T4, cynomolgus monkey EpoR (cynoEpoR) (cynomolgus monkey, UniProt A0A2K5WKK4 25-250).
T4 construct: Soluble protein (coated in ELISA, analyte in SPR)
T4 sequence: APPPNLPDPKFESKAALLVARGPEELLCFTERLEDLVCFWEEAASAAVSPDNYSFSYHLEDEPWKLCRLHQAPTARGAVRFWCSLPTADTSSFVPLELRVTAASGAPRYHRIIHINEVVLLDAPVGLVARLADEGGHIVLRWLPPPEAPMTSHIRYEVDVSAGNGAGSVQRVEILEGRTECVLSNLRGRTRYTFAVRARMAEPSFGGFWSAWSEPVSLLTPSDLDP
The assay is described as above.

Assay [4] concerns the target T5, biotinylated mouse EpoR-Fc protein (muEpoR-Fc) (mouse, UniProt P14753 25-249, limits assumed, biotinylated).
T5 construct: also called mouse EpoR (muEpoR); not shown: Fc part
T5 sequence (looked up): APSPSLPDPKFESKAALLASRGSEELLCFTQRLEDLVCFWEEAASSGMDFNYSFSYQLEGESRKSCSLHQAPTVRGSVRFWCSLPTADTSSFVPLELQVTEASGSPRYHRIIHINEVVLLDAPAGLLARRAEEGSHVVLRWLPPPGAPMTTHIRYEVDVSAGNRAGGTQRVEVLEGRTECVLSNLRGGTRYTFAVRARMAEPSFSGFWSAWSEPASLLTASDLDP
Put plainly: ELISA, antibody coated at 1 µg/ml, biotinylated muEpoR-Fc at 5 µg/ml, streptavidin-HRP.

Assay [5] addresses T3, huEpoR protein (soluble human …). Put plainly: SPR, BIAcore 3000; scFv-Fc captured on anti-human Fc CM4 chip, huEpoR as analyte.

B1: Mxb 29 (clone 29 scFv-Fc protein) (Fc fusion)
VH: [letters of about 100 residues left out]GGHMTTVTRDAFDIWGQGTMVTVSA
VL: SSELTQDPAVSVALGQTIRITCQGDSLRYYYATWYQQKPGQAPILVIYGQNNRPSGVPDRFSGSSSGNTASLTITGAQAEDEADYYCGTWDSSVSASWVFGGGTKVTVL
notes: Tested as scFv-Fc (maxibody) with an Fc derived from human IgG1
The term Kd denotes the equilibrium constant for the complex coming apart. As a reminder, the koff is the rate constant with which the complex falls apart. In general, kon refers to the second-order rate constant of association. On to B1, for which, in assay [1], the “Average EC50 (nM), UT-7-luciferase (STAT5 reporter) assay” value (“Average EC50 (nM), UT-7-luciferase” for short) is 1.52 nM and the “Ratio (EC50 of Epo / EC50 of the scFv-Fc), UT-7-luciferase assay” value worked out at 0.006. Also, in the assay with mouse EpoR (muEpoR), the binding result is “no binding (tested: 5 µg/ml)”. Besides, in assay [2], the Kd amounted to 487 nM, the koff was 0.0629 s⁻¹ and the kon was 129000 M⁻¹ s⁻¹. In assay [3], this molecule yielded a Kd of 265 nM, a koff of 0.0504 s⁻¹ and a kon of 190000 M⁻¹ s⁻¹.

B2: Mxb 7 (clone 7 scFv-Fc protein) (Fc fusion)
chain: EVQLVQSGGGLVQPGGSLRLSCAASGFTFSSYWMSWVRQAPGKGLEWVANIKPDGSEKYYVDSVKGRFTISRDNAKNSVYLQMNSLRAEDTAVYYCARVSRGGSYSDWGKGTLVTVSSGGGGSGGGGSGGGGSAQSALTQPASVSGSPGQSIIISCTGTRSDIGGYNYVSWYQHHPGRAPKLIIFDVNNRPSGVSHRFSGSKSGNTASLTISGLQAEDEADYYCNSFTDSRTWLFGGGTKLTVLGAAA[letters of human IgG1 Fc left out]
notes: scFv-Fc (maxibody): VH, linker, VL, human IgG1 Fc
As for B2, the binding result in assay [4] is given as “binds”. In assay [5], this molecule showed a Kd of 271 nM, a koff of 0.0541 s⁻¹ and a kon of 200000 M⁻¹ s⁻¹. In addition, in assay [1], the “Average EC50 (nM), UT-7-luciferase” value is 0.468 nM and the “Ratio (EC50 of Epo / EC50 of the scFv-Fc), UT-7-luciferase assay” value is 0.02.

B3: Mxb 2 (clone 2 scFv-Fc protein) (Fc fusion)
chain: EVQLVQSGGGLVQPGGSLRLSCAASGFTFSSYWMSWVRQAPGKGLEWVANIKPDGSEKYYVDSVKGRFTISRDNAKNSVYLQMNSLRAEDTAVYYCARVSRGGSYSDWGQGTLVTVSSGGGGSGGGGSGGGGSAQSVLTQPPSASGSPGQSVTISCTGTSSDVGGYNYVSWYQQHPGKAPKLMIYEVSKRPSGVPDRFSGSKSGNTASLTVSGLQPEDEADYYCSSYAGRNWVFGGGTQLTVLGAAA[letters of human IgG1 Fc left out]
notes: as for B2
For the molecule B3, the binding result in assay [4] is given as “binds”. In assay [5], this molecule yielded a dissociation constant Kd of 334 nM, a koff of 0.136 s⁻¹ and a kon of 410000 M⁻¹ s⁻¹. In addition, in assay [1], the “Average EC50 (nM), UT-7-luciferase” value came out at 0.604 nM and the “Ratio (EC50 of Epo / EC50 of the scFv-Fc), UT-7-luciferase assay” value amounted to 0.016.

B4: Mxb 5 (clone 5 scFv-Fc protein) (Fc fusion)
chain: EVQLVESGGGLVQPGGSLRLSCAASGFTFSSYWMSWVRQAPGKGLEWVANIKPDGSEKYYVDSVKGRFTISRDNAKNSVYLQMNSLRAEDTAVYYCARVSRGGSYSDWGQGTLVTVSSGGGGSGGGGSGGGGSAQSALTQPASVSGSPGQSITISCTGTSSDVGGYIYVSWYQQHPGKAPKLMIYDVSRRPSGISDRFSGSKSGNTASLTISGLQAEDEADYYCNSYTTLSTWLFGGGTKVTVLGAAA[letters of human IgG1 Fc left out]
notes: as for B2
As to B4, the binding result in assay [4] was “binds”. In assay [5], this molecule yielded a Kd of 217 nM, a koff of 0.0612 s⁻¹ and a kon of 280000 M⁻¹ s⁻¹. Also, in assay [1], the “Average EC50 (nM), UT-7-luciferase” value is 0.791 nM and the “Ratio (EC50 of Epo / EC50 of the scFv-Fc), UT-7-luciferase assay” value was found to be 0.012. Also, in assay [3], the Kd worked out at 140 nM, the koff was 0.0611 s⁻¹ and the kon was 437000 M⁻¹ s⁻¹.

B5: Mxb 30 (clone 30 scFv-Fc protein) (Fc fusion)
chain: QVQLQESGPGLVKPSQTLSLTCAISGDSVSSNSAAWNWIRQSPSRGLEWLGRTYYRSKWYNDYAVSVKSRMTIKADTSKNQFSLQLNSVTPEDTAVYYCARDEGPLDYWGQGTLVTVSAGGGGSGGGGSGGGGSGAPQAVLTQPSSVSGAPGQRVTISCTGSSSNLGTGYDVHWYQQLPGTAPKLLIYGNSNRPSGVPDRFSGSKSDTSGLLAITGLQAEDEATYYCQSYDFSLSAMVFGGGTKVTVLAAA[letters of human IgG1 Fc left out]
notes: scFv-Fc (maxibody) with human IgG1 Fc
In assay [5], B5 displayed a Kd of 14900 nM, a koff of 0.274 s⁻¹ and a kon of 18000 M⁻¹ s⁻¹. In addition, in assay [1], the “Average EC50 (nM), UT-7-luciferase” value worked out at 0.67 nM and the “Ratio (EC50 of Epo / EC50 of the scFv-Fc), UT-7-luciferase assay” value came out at 0.014. In assay [3], this molecule returned a dissociation constant Kd of 2310 nM, a koff of 0.485 s⁻¹ and a kon of 211000 M⁻¹ s⁻¹.

B6: Mxb 10 (clone 10 scFv-Fc protein) (Fc fusion)
chain: [letters of about 100 residues left out]DRVAVAGKGSYYFDSWGRGTTVTVSSGGGGSGGGGSGGGGSAQSVLTQPPSVSEAPGQRVTIACSGSSSNIGNNAVSWYQQLPGKAPTLLIYYDNLLPSGVSDRFSGSKSGTSASLAISGLQSEDEADYYCAAWDDSLNDWVFGGGTKVTVLGAAA[letters of human IgG1 Fc left out]
notes: as for B2
For the molecule B6, the binding result in assay [4] was “binds”. In assay [3], this molecule came in with a Kd of 6.83 nM, a koff of 0.00107 s⁻¹ and a kon of 156000 M⁻¹ s⁻¹.
